Test results from the supplement of paper PMC10126150.
Values marked as one replicate rest on one cluster of the flow cell; about a third of the high ones do not repeat.

Tested on: ATP
Experiment: switch fluorescence ratio, 500 uM ATP over buffer (Cy3 cluster intensity, sum of 5 cycles each) (fold (ratio)); higher = stronger signal-on switching upon ATP binding; sequences stand for … in TCGTCGGCAGCGTCAGATGTGTATAAGAGACAGTTTTTTTTTTTTTTTTTTTTTTTTT…TC
Conditions: aptamer strand: ATP DNA aptamer (quencher-CACCTGGGGGAGTATTGCGGAGGAAGG + anchor), 100 nM annealed; ATP concentration: 500 uM; one replicate
Outline: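 After annealing to 100 nM quencher-labelled ATP aptamer, Cy3-labelled switching-strand clusters on a modified Illumina MiSeq flow-cell were imaged in selection buffer. A second image followed after 15 min with 500 uM ATP at 22 °C, and five such buffer/ATP cycles were done, each separated by NaOH stripping and re-annealing. The fluorescence ratio, averaged per switch-domain sequence, is summed target-cycle over summed buffer-cycle Cy3 intensity per cluster, with clusters outside 100-1000 RFU excluded.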
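Also: ATP exposure 15 min at 22 °C before imaging.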

TCCTGCCACA gave a switch fluorescence ratio of 1.42.

Work on GGGTCCACGC yielded a switch fluorescence ratio of 1.05.

In the case of GTTTCCCCGG, the switch fluorescence ratio is reported as 1.36.

TTCGGCGCCC showed a switch fluorescence ratio of 0.979.

In the case of TTGGGCGTGA, the switch fluorescence ratio is reported as 0.994.

With GTGGCGTTGG the switch fluorescence ratio was 1.

AGCGTCGGAC showed a switch fluorescence ratio of 0.999.

AACGCCAGGG gave a switch fluorescence ratio of 1.23.

GGTTGATGGC was tested, and the switch fluorescence ratio was 0.99.

With ATGGGAGACG the switch fluorescence ratio was 1.09.

With AGGCTAGGA the switch fluorescence ratio was 0.981.

For ATAATCTTCT, the switch fluorescence ratio was 1.12.

For TCGGTTTGTA, the switch fluorescence ratio was 1.04.

TCGAAGCTTG gave a switch fluorescence ratio of 1.05.

ATTAATATAC was tested, and the switch fluorescence ratio was 1.06.

CGTTTCCTGT gave a switch fluorescence ratio of 0.928.

ACGGAATGGA showed a switch fluorescence ratio of 1.13.

In the case of TTATGGTCTC, the switch fluorescence ratio is reported as 0.945.

GCGGAACTAG showed a switch fluorescence ratio of 1.03.

ATTTTGGTCT showed a switch fluorescence ratio of 1.04.

Work on CACTAGCCCA yielded a switch fluorescence ratio of 1.

GGGATAAAC showed a switch fluorescence ratio of 1.06.

TAATAGATA showed a switch fluorescence ratio of 0.966.

CGTACCT showed a switch fluorescence ratio of 1.3.

In the case of CTTATATTGC, the switch fluorescence ratio is reported as 1.06.

For CGCGAGGTTA, the switch fluorescence ratio was 0.986.

AGATCGCGGC showed a switch fluorescence ratio of 1.04.

GGGGAGTT gave a switch fluorescence ratio of 0.986.

GATACCATCA was tested, and the switch fluorescence ratio was 1.02.

In the case of TAAATCGGTT, the switch fluorescence ratio is reported as 1.

TGTAGGGGA showed a switch fluorescence ratio of 0.931.

CGTTGAGAGT gave a switch fluorescence ratio of 1.

ATCGAAAGGT showed a switch fluorescence ratio of 1.06.

With GTCCTTGTA the switch fluorescence ratio was 0.996.

TTGCAGGTCC gave a switch fluorescence ratio of 1.05.

In the case of CACACCGGGT, the switch fluorescence ratio is reported as 1.19.

CGTTGGTGCC gave a switch fluorescence ratio of 1.01.

ACTCCTGG was tested, and the switch fluorescence ratio was 1.07.

For TAAGCCACCA, the switch fluorescence ratio was 1.14.

With GCTCTGCATC the switch fluorescence ratio was 2.08.

Work on TATGACCCAG yielded a switch fluorescence ratio of 1.

Sequence TACGCGACGG has a switch fluorescence ratio of 1.1.

Work on ACGGTATTTA yielded a switch fluorescence ratio of 1.09.

Sequence TGCCGAACGT has a switch fluorescence ratio of 1.05.

TAGGTCCGCA was tested, and the switch fluorescence ratio was 1.75.

CGAAGTAGGC was tested, and the switch fluorescence ratio was 1.38.

GCACCACGGA was tested, and the switch fluorescence ratio was 1.1.

Sequence CACATTCATT has a switch fluorescence ratio of 1.02.

CCTAAAAAAC gave a switch fluorescence ratio of 1.18.

TAACAGACGT showed a switch fluorescence ratio of 1.08.

Work on GACCTAAGTG yielded a switch fluorescence ratio of 0.97.

With AAAGTTATC the switch fluorescence ratio was 1.

GGGCACGCAG gave a switch fluorescence ratio of 1.03.

Work on CTCATTGCG yielded a switch fluorescence ratio of 1.

For AATTAGTCAC, the switch fluorescence ratio was 1.04.

In the case of TTTTAGCTTG, the switch fluorescence ratio is reported as 1.

CCTCGGTATT gave a switch fluorescence ratio of 2.19.

Work on CTCCCCCAGT yielded a switch fluorescence ratio of 4.1.

TGGTAATCTT gave a switch fluorescence ratio of 0.989.

Sequence TCTCCGTTT has a switch fluorescence ratio of 1.69.

TAAGGCTGCA gave a switch fluorescence ratio of 0.978.

Work on GGGTATTCAT yielded a switch fluorescence ratio of 0.991.

AAGCCTATAT gave a switch fluorescence ratio of 0.998.

Sequence TGCGGTAGT has a switch fluorescence ratio of 1.09.

AATCTTCGCG was tested, and the switch fluorescence ratio was 1.01.

In the case of CTCTCACGCG, the switch fluorescence ratio is reported as 0.939.

CATATCAAAC showed a switch fluorescence ratio of 1.03.

GACGCTGAAG was tested, and the switch fluorescence ratio was 1.02.

For TCTTGGGCGC, the switch fluorescence ratio was 1.01.

GTGGAAACGC was tested, and the switch fluorescence ratio was 1.05.

ACAGCTGGCC was tested, and the switch fluorescence ratio was 0.96.

With ATCGTTTGGT the switch fluorescence ratio was 0.974.

GAGGATAGAT was tested, and the switch fluorescence ratio was 0.996.

For TGTTTCCGTT, the switch fluorescence ratio was 1.

Work on AGGAACGATT yielded a switch fluorescence ratio of 1.04.

CAGGGCCGGC showed a switch fluorescence ratio of 1.02.

In the case of AGACTACACA, the switch fluorescence ratio is reported as 1.2.

Work on CTGGTAGCCC yielded a switch fluorescence ratio of 1.01.

With TGATATGTGC the switch fluorescence ratio was 1.01.

CTGTTACACT showed a switch fluorescence ratio of 0.973.

Work on GGGCAGAAGA yielded a switch fluorescence ratio of 0.98.

For TCGTTACCAA, the switch fluorescence ratio was 0.993.

For AAGGGTACTT, the switch fluorescence ratio was 1.13.

In the case of ATCACTAGAT, the switch fluorescence ratio is reported as 0.961.

TAGGTAACGA was tested, and the switch fluorescence ratio was 0.98.

CACGTTTGAA gave a switch fluorescence ratio of 1.

Work on AGATACAACT yielded a switch fluorescence ratio of 0.997.

AGGGCAAAGA showed a switch fluorescence ratio of 0.959.

Work on AAAACCTCCG yielded a switch fluorescence ratio of 1.44.

GAGCGATAAT showed a switch fluorescence ratio of 1.1.

With CGTGTTCTTG the switch fluorescence ratio was 0.993.

With CGTCGGTTGG the switch fluorescence ratio was 0.997.

With GTAATTCTT the switch fluorescence ratio was 0.948.

CATGGCACCA was tested, and the switch fluorescence ratio was 0.997.

In the case of TTTCACGAGA, the switch fluorescence ratio is reported as 1.07.

With CTAGGGCGAG the switch fluorescence ratio was 0.979.

With TACAGACGGG the switch fluorescence ratio was 0.979.

Work on GCAATAACAC yielded a switch fluorescence ratio of 2.

With TAGGGCTTTA the switch fluorescence ratio was 1.01.

With CATGAACGGA the switch fluorescence ratio was 1.

GTTCTCTGAT was tested, and the switch fluorescence ratio was 0.989.

TAAACGTGCT was tested, and the switch fluorescence ratio was 1.01.

TGTATAAGCC gave a switch fluorescence ratio of 0.971.

For AGTATCGCGA, the switch fluorescence ratio was 1.08.

With AACGAACCTT the switch fluorescence ratio was 1.78.

GCTACCTGAA gave a switch fluorescence ratio of 1.09.

CGAGACCGCG showed a switch fluorescence ratio of 0.987.

For GGAACGGATG, the switch fluorescence ratio was 0.982.

GCATCAAGAC was tested, and the switch fluorescence ratio was 2.48.

Work on CTAAAGGTAG yielded a switch fluorescence ratio of 0.955.

In the case of CATGGTTCCA, the switch fluorescence ratio is reported as 1.02.

Work on CATTACTATC yielded a switch fluorescence ratio of 0.99.

In the case of TGGTATCTAC, the switch fluorescence ratio is reported as 1.

With TAGTGAACAT the switch fluorescence ratio was 1.03.

CAGAAATTGA gave a switch fluorescence ratio of 1.

For GTGGGGCCAT, the switch fluorescence ratio was 1.01.

With AGGAGTCAC the switch fluorescence ratio was 1.

CGCGCAACGG was tested, and the switch fluorescence ratio was 1.23.

In the case of GCGCTTACAT, the switch fluorescence ratio is reported as 1.06.

Work on GATTCCGAGT yielded a switch fluorescence ratio of 1.11.

CATTGGCG was tested, and the switch fluorescence ratio was 0.917.

Sequence GCACTATCAA has a switch fluorescence ratio of 1.07.

Work on TGCGAAAGGG yielded a switch fluorescence ratio of 0.992.

Sequence TAGGCGCGTG has a switch fluorescence ratio of 1.01.

Sequence AGACGCAACT has a switch fluorescence ratio of 1.69.

With AACGGATTCG the switch fluorescence ratio was 1.02.

AGAAAGTGAG was tested, and the switch fluorescence ratio was 1.05.

In the case of CACAAGCCTG, the switch fluorescence ratio is reported as 0.976.

Work on CTAGTATACA yielded a switch fluorescence ratio of 0.997.

CGTATTACTT showed a switch fluorescence ratio of 1.04.

In the case of AAAACATCTA, the switch fluorescence ratio is reported as 0.988.

In the case of TATATACGTG, the switch fluorescence ratio is reported as 1.

Work on TAAGCCTAG yielded a switch fluorescence ratio of 0.991.

CTAAGCATCG gave a switch fluorescence ratio of 1.04.

In the case of TCTCAGTTTT, the switch fluorescence ratio is reported as 1.

In the case of TTTGCTAGGC, the switch fluorescence ratio is reported as 1.02.

For TCCGTGGCAG, the switch fluorescence ratio was 1.39.

With CCAGGATTCG the switch fluorescence ratio was 1.

AACTGGGTCC was tested, and the switch fluorescence ratio was 1.01.

Sequence ACAAGATCG has a switch fluorescence ratio of 0.99.

In the case of AGTCCTTCTT, the switch fluorescence ratio is reported as 1.01.

Work on CTGTACATGA yielded a switch fluorescence ratio of 1.

For GCAGTACCGT, the switch fluorescence ratio was 1.02.

In the case of AGCGAGTACG, the switch fluorescence ratio is reported as 1.02.

Work on AATACTGTCT yielded a switch fluorescence ratio of 1.04.

With TTACGATTAT the switch fluorescence ratio was 1.01.

GTGCTATTTA gave a switch fluorescence ratio of 1.01.

Sequence TACAGGCTCT has a switch fluorescence ratio of 1.06.

For TGTGACCGTA, the switch fluorescence ratio was 1.01.

With CTTTAGGGTT the switch fluorescence ratio was 0.995.

Work on GCCGGAGACC yielded a switch fluorescence ratio of 0.981.

CTTCCTGATC showed a switch fluorescence ratio of 1.19.

Sequence AAGTCTTTGT has a switch fluorescence ratio of 0.964.

ATCCTGCATC gave a switch fluorescence ratio of 1.48.
